Data: PubChem BioAssay AID995 (National Center for Advancing Translational Sciences (NCATS), 2007)
In all, about 72,000 compounds went through this assay and about 710 (0.99%) were called active. The shares of active, inactive and inconclusive entries below differ from those in the screen. Calls come from the whole dose curve; as a rule, active = well fitted inhibition curve with a large enough effect; inconclusive = small, poorly fitted or top-dose-only effect; inactive = no such curve, though single readings can be large or run the other way. No potency is given beside an inconclusive call; the fits are too rough.

Test: qHTS Assay for Inhibitors of the ERK Signaling Pathway using a Homogeneous Screening Assay; note: nearly all actives have a fitted effect of over 55% in size
Conditions: HEK293-V1b, vasopressin-stimulated pERK AlphaScreen; activity, negative = inhibition: at 57.5 µM (top of the series) unless noted
In short: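 Overnight-seeded V1b-HEK293 cells in 1% FBS got compound, then vasopressin (25 nM final, 5 min, 37C), then lysis buffer. AlphaScreen detection of phospho-ERK; activity normalized to basal and full-stimulation controls.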
% is set by controls: 0 for no effect and ±100 for the full control effect; potency is the fitted concentration of half-maximal effect; tags give direction and shape of the fitted curve.

Row | Structure (SMILES) | activity, negative = inhibition | Potency
1 | CCOC(=O)c1oc2ccccc2c1CSc1nnc(-c2ccco2)o1 | inactive: 9.6% | 
2 | CN(C)c1ncc2ncc(=O)n(C)c2n1 | inactive: -27% | 
3 | O=C(Cc1ccc(Cl)cc1)c1c(O)cc(O)cc1O |  | inconclusive [inhibitor, single point]
4 | O=C(NC1CCN(Cc2ccccc2)CC1)C1CCCN(c2nnc(-n3cccc3)s2)C1 (stereo not given) |  | inconclusive [inhibitor, partial curve, poor fit]
5 | O=C(CSc1nc2ccccc2[nH]1)N1CCN(c2ccc(F)cc2)CC1 |  | active: 25.1 µM
6 | O=C1CC(c2cccc(Cl)c2)Cc2nc(N3CCOCC3)ncc21 (stereo not given) |  | inconclusive [inhibitor, single point]
7 | CC(=O)N1CCCc2cc(S(=O)(=O)CCC(=O)N3CCN(c4cccc(C)c4)C(C)C3)ccc21 (stereo not given) |  | inconclusive [inhibitor, partial curve]
8 | CCOC(=O)C1CCN(c2ncnc3c2oc2ccc(Br)cc23)CC1 |  | inconclusive [inhibitor, single point]
9 | COc1ccc(Cl)cc1C(=O)N(Cc1nc(-c2cccc(C)c2)no1)C(C)C | inactive: 2.62% | 
10 | O=C(COc1ccccc1)Nc1ccccc1C(=O)NCc1ccco1 |  | inconclusive [inhibitor, partial curve, poor fit]
11 | Cn1cccc1Cc1nnc(SCC(=O)NC2CCCCC2)n1CCc1ccccc1 |  | inconclusive [inhibitor, single point]
12 | COc1ccccc1CNC(=O)CSc1nc(-c2ccccc2)cn1N |  | inconclusive [inhibitor, single point]
13 | COc1ccc2cc3c(N)nn(C(=O)Cc4ccccc4OC)c3nc2c1 |  | inconclusive [inhibitor, single point]
14 | Cc1c(C(=O)N2CCCC2)oc2c1-c1[nH]ncc1CC2 |  | inconclusive [inhibitor, partial curve]
15 | N#CC1=C(N)Oc2n[nH]c(-c3cccs3)c2C1c1ccoc1 (stereo not given) |  | inconclusive [inhibitor, full curve, poor fit]
16 | CC(=O)O[C@]1(C(C)=O)CC[C@@H]2[C@@H]3C=C(Cl)C4=CC(=O)[C@H]5C[C@@H]5[C@]4(C)[C@H]3CC[C@]21C |  | inactive
17 | COc1cccc(OC)c1C(=O)N1CCN(Cc2ccccc2C(F)(F)F)CC1 |  | inconclusive [inhibitor, partial curve]
18 | Cc1ccc(-c2nc3cc(NC(=O)C(C)C)ccc3o2)cc1C |  | inconclusive [inhibitor, partial curve]
19 | Cc1c(C(=O)Nc2ccncc2)oc2ccccc12 |  | inconclusive [inhibitor, single point]
20 | Cc1cccc(CNc2nc(-c3ccoc3)nc3ccccc23)c1 |  | inconclusive [inhibitor, single point]
21 | N#Cc1nc(-c2ccco2)oc1N1CCN(c2cccc(Cl)c2)CC1 |  | inconclusive [inhibitor, single point]
22 | CCOC(=O)c1ccc(-c2c(C(=O)OCC)oc3cc(O)c(CC)cc3c2=O)o1 |  | inconclusive [inhibitor, single point]
23 | Cc1ccccc1C(=O)Nc1ccc2nc3n(c(=O)c2c1)CCC3 |  | inconclusive [inhibitor, single point]
24 | N#Cc1nc(-c2ccccc2Cl)oc1N1CCOCC1 |  | inconclusive [inhibitor, partial curve]

Row | Structure (SMILES) | activity, negative = inhibition | Potency
25 | CCOC(=O)N1CCN(C(=O)C2CCCN(c3nc4ccc(OCC)cc4s3)C2)CC1 (stereo not given) | inactive: -16.1% | 
26 | COc1ccc(C2C=C(c3ccc(C)c(C)c3)Nc3ncnn32)c(OC)c1OC (stereo not given) |  | inconclusive [inhibitor, partial curve]
27 | Brc1ccccc1-c1nnc2sc(Cc3ccccc3)nn12 |  | inconclusive [inhibitor, single point]
28 | CC(NC(=O)Cn1cnc2c1c(=O)n(C)c(=O)n2C)c1ccccc1 (stereo not given) |  | inconclusive [inhibitor, partial curve]
29 | CC(C)CC(=O)Nc1cccc(-c2nc3ccccc3o2)c1 |  | inconclusive [inhibitor, single point]
30 | Cc1cc(C(F)(F)F)nc(Nc2nc(C)c3ccccc3n2)n1 | inactive: -12.2% | 
31 | COCC(=O)Nc1nc(-c2ccccc2)c(C)s1 |  | inconclusive [inhibitor, partial curve]
32 | O=c1c(-c2ccc(F)c(F)c2)nc2cncnc2n1Cc1ccc(F)cc1 |  | inconclusive [inhibitor, partial curve]
33 | c1ccc2c(-n3ccnc3)nc(-c3ccoc3)nc2c1 | inactive: -19.8% | 
34 | COc1cc(OC)c(C2N(c3ccc(Cl)c(Cl)c3)C(=O)C3CCCN32)cc1OC (stereo not given) | inactive: -9.22% | 
35 | CC(C)(C)NC(=O)c1sccc1C(=O)O |  | inconclusive [inhibitor, partial curve]
36 | Cc1sc2nc(N)sc2c1C |  | inconclusive [inhibitor, partial curve]
37 | CCOC(=O)c1cnc2c(C(=O)OC)cccc2c1NCc1ccco1 |  | inconclusive [inhibitor, single point]
38 | Cc1cccc(OCc2nc(C#N)c(NCc3ccc4c(c3)OCO4)o2)c1 | inactive: -13.1% | 
39 | CCN(CC)CCn1c2ccccc2c2cnc(N=CN(C)C)c(C#N)c21 |  | inconclusive [inhibitor, partial curve]
40 | CCOc1ccc(OCC)c(NC(=O)CC2Oc3ccccc3NC2=O)c1 (stereo not given) |  | inconclusive [inhibitor, single point]
41 | COc1ccc(CCNc2oc(-c3ccc(C)cc3)nc2C#N)cc1OC |  | inconclusive [inhibitor, single point]
42 | CCOC(=O)c1ccc(N2C(=O)c3n[nH]c(C)c3C2c2ccccc2)cc1 (stereo not given) |  | inconclusive [inhibitor, single point]
43 | COc1ccc(C(CNC(=O)COc2ccccc2C#N)N2CCOCC2)cc1 (stereo not given) | inactive: -12.5% | 
44 | COc1cccc(C2CC(C(F)(F)F)n3nc(C(=O)NCc4cccnc4)cc3N2)c1 (stereo not given) |  | inconclusive [inhibitor, partial curve, poor fit]
45 | CN1CCO[C@H](c2ccccc2)c2ccccc2C1 | inactive: -18.2% [at 25.7 µM] | 
46 | CCNc1ncc2nc(-c3cccs3)c(=O)n(CCC#N)c2n1 |  | active: 5.01 µM
47 | Cc1nc2oc3c(NCC4CCCO4)ncnc3c2c2c1COC(C)(C)C2 (stereo not given) |  | inconclusive [inhibitor, partial curve]
48 | CC1=C(/C=C/C(C)=C/C=C/C(C)=C/C(=O)O)C(C)(C)CCC1 | inactive: 8.44% | 

Row | Structure (SMILES) | activity, negative = inhibition | Potency
49 | Cc1ccc(NC(=O)Cn2c(=O)n(Cc3ccco3)c(=N)c3c4c(sc32)COC(C)(C)C4)cc1 |  | inconclusive [inhibitor, single point]
50 | CC1(C)CC[C@]2(C(=O)O)C(O)C[C@@]3(C)C(=CCC4[C@@]5(C)CCC(O)C(C)(C)C5CC[C@@]43C)C2C1 (stereo not given in full) |  | inconclusive [inhibitor, partial curve]
51 | Cc1cccc(OCc2n[nH]c(=S)o2)c1 |  | inconclusive [inhibitor, single point]
52 | O=S(=O)(c1ccccc1)c1ccc(NCc2ccco2)cc1 |  | inconclusive [inhibitor, partial curve]
53 | Cc1nnc(SCc2cn3ccsc3n2)n(N)c1=O | inactive: 17.3% | 
54 | Cn1cc(C(F)(F)F)nc1-c1ccc(OC[C@@H](O)CNCCOc2ccc(O)c(C(N)=O)c2)cc1 |  | inconclusive [inhibitor, single point]
55 | CCN1c2ccccc2NC2C1C(C(C)=O)C(=O)N2c1ccc(Cl)cc1 (stereo not given) | inconclusive: -35.5% [inhibitor] | 
56 | CC(C)(C)Nc1nc(C(N)=O)nc(N2CCOCC2)n1 |  | inconclusive [inhibitor, single point]
57 | O=C(CSc1nnc2scc(-c3ccccc3)n12)Nc1nsc(-c2ccc(Cl)cc2)n1 |  | inconclusive [inhibitor, partial curve, poor fit]
58 | COc1ccc(NC(=O)c2oc3ccccc3c2NC(=O)c2ccco2)cc1 | inactive: 13.1% | 
59 | COc1ccc(C(=O)Nc2cccc(C(C)=O)c2)cc1S(=O)(=O)N1CCOCC1 |  | inconclusive [inhibitor, full curve, poor fit]
60 | CCc1nc(C)c(C#N)c2cc(OC)c(OC)cc12 |  | active: 25.1 µM
61 | Cc1ccc2c(CN3CCN(S(=O)(=O)c4ccc5c(c4)OCCO5)CC3)cc(=O)oc2c1C |  | inconclusive [inhibitor, single point]
62 | COCCOC(=O)c1c(C)oc2ccc(OCc3cc(C(=O)OC)oc3C)cc12 | inactive: 1.79% | 
63 | O=C(CN1C(=O)c2ccccc2S1(=O)=O)NCCSC1CCCCC1 |  | inconclusive [inhibitor, single point]
64 | CS(=O)(=O)N(CCc1ccccc1)CC(=O)N1CCc2ccccc2C1 | inconclusive: -30.7% [inhibitor] | 
65 | Cc1noc(C)c1-c1cc(N(C)Cc2ccco2)ncn1 | inactive: -10.4% | 
66 | Cc1nc2ccccn2c1-c1csc(NCc2ccco2)n1 |  | inconclusive [inhibitor, partial curve]
67 | COc1ncc2nc(-c3ccccc3)c(=O)n(CCc3ccccc3)c2n1 | inactive: -19.9% | 
68 | O=C(c1ccc(Cl)cc1)N1CCCCC(Sc2nnc(-c3ccc4c(c3)OCO4)o2)C1=O (stereo not given) | inactive: 2.14% | 
69 | COc1ccc(C2CC(c3ccco3)n3ncnc3N2)cc1 (stereo not given) |  | inconclusive [inhibitor, single point]
70 | CCOC(=O)Cn1nnc(-c2ccc(SC)cc2)n1 |  | inconclusive [inhibitor, single point]
